Source: the supplement of paper PMC8728848
The list shows a part of the results.

Legend:
Assay in all cases: glycan array binding signal (z-score within array); higher = stronger binding
Settings in all cases: glycan notation: IUPAC condensed, linker removed
[1] = target: Fuc(a1-3)[Gal(b1-4)]GlcNAc6S
In short: (§1)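 Glycan array data were curated from 3228 arrays in the Consortium for Functional Glycomics database and kept only where the protein sequence was available. Glycan names were converted to IUPAC-condensed notation, and columns mapping to the same glycan were averaged. The binding signal is a within-array Z-score, averaged across arrays of the same protein sequence at different concentrations or buffers and across linkers. Negative Z-scores can be read as non-binding.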

[2] = target: Fuc(a1-3)[Gal3S(b1-4)]GlcNAc
In short: as §1

[3] = target: Fuc(a1-3)[Gal3S(b1-4)]GlcNAc6S
In short: as §1

[4] = target: Fuc(a1-3)[GalNAc(b1-4)]GlcNAc
In short: as §1

Fuc(a1-4)GlcNAc = target: Fuc(a1-4)GlcNAc
In short: as §1

Fuc(b1-3)GlcNAc = target: Fuc(b1-3)GlcNAc
In short: as §1

Gal(a1-2)Gal = target: Gal(a1-2)Gal
In short: as §1

Gal(a1-3)Gal = target: Gal(a1-3)Gal
In short: as §1

Gal(a1-3)Gal(b1-3)GlcNAc = target: Gal(a1-3)Gal(b1-3)GlcNAc
In short: as §1

[5] = target: Gal(a1-3)Gal(b1-3)GlcNAc(b1-2)Man(a1-3)[Gal(a1-3)Gal(b1-3)GlcNAc(b1-2)Man(a1-6)]Man(b1-4)GlcNAc(b1-4)GlcNAc
In short: as §1

[6] = target: Gal(a1-3)Gal(b1-3)GlcNAc(b1-3)GalNAc
In short: as §1

[7] = target: Gal(a1-3)Gal(b1-3)[Fuc(a1-4)]GlcNAc(b1-2)Man(a1-3)[Gal(a1-3)Gal(b1-3)[Fuc(a1-4)]GlcNAc(b1-2)Man(a1-6)]Man(b1-4)GlcNAc(b1-4)GlcNAc
In short: as §1

Gal(a1-3)Gal(b1-4)Glc = target: Gal(a1-3)Gal(b1-4)Glc
In short: as §1

Gal(a1-3)Gal(b1-4)GlcNAc = target: Gal(a1-3)Gal(b1-4)GlcNAc
In short: as §1

[8] = target: Gal(a1-3)Gal(b1-4)GlcNAc(b1-3)GalNAc
In short: as §1

[9] = target: Gal(a1-3)Gal(b1-4)[Fuc(a1-3)]GlcNAc
In short: as §1

[10] = target: Gal(a1-3)Gal(b1-4)[Fuc(a1-3)]GlcNAc(b1-2)Man(a1-3)[Gal(a1-3)Gal(b1-4)[Fuc(a1-3)]GlcNAc(b1-2)Man(a1-6)]Man(b1-4)GlcNAc(b1-4)GlcNAc
In short: as §1

Gal(a1-3)GalNAc = target: Gal(a1-3)GalNAc
In short: as §1

[11] = target: Gal(a1-3)[Gal(a1-4)]Gal(b1-4)GlcNAc
In short: as §1

[12] = target: Gal(a1-4)Gal(b1-3)GlcNAc(b1-2)Man(a1-3)[Gal(a1-4)Gal(b1-3)GlcNAc(b1-2)Man(a1-6)]Man(b1-4)GlcNAc(b1-4)GlcNAc
In short: as §1

Gal(a1-4)Gal(b1-4)Glc = target: Gal(a1-4)Gal(b1-4)Glc
In short: as §1

Gal(a1-4)Gal(b1-4)GlcNAc = target: Gal(a1-4)Gal(b1-4)GlcNAc
In short: as §1

[13] = target: Gal(a1-4)Gal(b1-4)GlcNAc(b1-2)Man(a1-3)[Gal(a1-4)Gal(b1-4)GlcNAc(b1-2)Man(a1-6)]Man(b1-4)GlcNAc(b1-4)GlcNAc
In short: as §1

[14] = target: Gal(a1-4)Gal(b1-4)GlcNAc(b1-3)Gal(b1-4)Glc
In short: as §1

Gal(a1-4)GlcNAc = target: Gal(a1-4)GlcNAc
In short: as §1

Gal(a1-6)Glc = target: Gal(a1-6)Glc
In short: as §1

Gal(b1-2)Gal = target: Gal(b1-2)Gal
In short: as §1

Gal(b1-3)Gal = target: Gal(b1-3)Gal
In short: as §1

Gal(b1-3)Gal(b1-4)GlcNAc = target: Gal(b1-3)Gal(b1-4)GlcNAc
In short: as §1

[15] = target: Gal(b1-3)Gal(b1-4)GlcNAc(b1-2)Man(a1-3)[Gal(b1-3)Gal(b1-4)GlcNAc(b1-2)Man(a1-6)]Man(b1-4)GlcNAc(b1-4)GlcNAc
In short: as §1

Gal(b1-3)GalNAc = target: Gal(b1-3)GalNAc
In short: as §1

[16] = target: Gal(b1-3)GalNAc(a1-3)[Fuc(a1-2)]Gal(b1-4)Glc
In short: as §1

[17] = target: Gal(b1-3)GalNAc(a1-3)[Fuc(a1-2)]Gal(b1-4)GlcNAc
In short: as §1

[18] = target: Gal(b1-3)GalNAc(b1-3)Gal(a1-4)Gal(b1-4)Glc
In short: as §1

[19] = target: Gal(b1-3)GalNAc(b1-4)Gal(b1-4)Glc
In short: as §1

[20] = target: Gal(b1-3)GalNAc(b1-4)[Neu5Ac(a2-3)]Gal(b1-4)Glc
In short: as §1

Gal(b1-3)GlcNAc = target: Gal(b1-3)GlcNAc
In short: as §1

[21] = target: Gal(b1-3)GlcNAc(a1-6)Gal(b1-4)GlcNAc
In short: as §1

[22] = target: Gal(b1-3)GlcNAc(b1-2)Man(a1-3)[Gal(b1-3)GlcNAc(b1-2)Man(a1-6)]Man(b1-4)GlcNAc(b1-4)GlcNAc
In short: as §1

[23] = target: Gal(b1-3)GlcNAc(b1-2)Man(a1-3)[Gal(b1-3)GlcNAc(b1-2)Man(a1-6)]Man(b1-4)GlcNAc(b1-4)[Fuc(a1-6)]GlcNAc
In short: as §1

[24] = target: Gal(b1-3)GlcNAc(b1-2)[Gal(b1-3)GlcNAc(b1-6)]Man(a1-6)[Gal(b1-3)GlcNAc(b1-2)Man(a1-3)]Man(b1-4)GlcNAc(b1-4)GlcNAc
In short: as §1

[25] = target: Gal(b1-3)GlcNAc(b1-3)Gal(b1-3)GlcNAc
In short: as §1

[26] = target: Gal(b1-3)GlcNAc(b1-3)Gal(b1-4)Glc
In short: as §1

[27] = target: Gal(b1-3)GlcNAc(b1-3)Gal(b1-4)GlcNAc
In short: as §1

[28] = target: Gal(b1-3)GlcNAc(b1-3)Gal(b1-4)GlcNAc(b1-6)[Gal(b1-3)GlcNAc(b1-3)]Gal(b1-4)Glc
In short: as §1

B1: Tectonin 2 (Laccaria bicolor) (protein)
chain: MPWKGISGSLSRISAGSVTNVWGVNAANNIYRYTGDDAKPWVQIPGALTDIGAAADGTVWGVNAAGNIYRYVWDSNHWTQIKGALKRISAGSRTNVWGVNAGGAIYRYTGDDANPWVQIPGVLSDIGAGADGTVWGVNAAGEIYRYTGDQGDPNHWVKIPGALSAISAGIKTNVWGVNSANNIYTSTGDDKNPWLGIGGSLVDIGAGTDGVVWGVNAGGGIYRWIRD
glycan array binding signal (z-score) [1]: -0.169 | glycan array binding signal (z-score) [2]: -0.074 | glycan array binding signal (z-score) [3]: 0.299 | glycan array binding signal (z-score) [4]: -0.324 | glycan array binding signal (z-score) (Fuc(a1-4)GlcNAc): -0.511 | glycan array binding signal (z-score) (Fuc(b1-3)GlcNAc): -0.311 | glycan array binding signal (z-score) (Gal(a1-2)Gal): -0.124 | glycan array binding signal (z-score) (Gal(a1-3)Gal): -0.089 | glycan array binding signal (z-score) (Gal(a1-3)Gal(b1-3)GlcNAc): -0.36 | glycan array binding signal (z-score) [5]: -0.028 | glycan array binding signal (z-score) [6]: 0.13 | glycan array binding signal (z-score) [7]: -0.008 | glycan array binding signal (z-score) (Gal(a1-3)Gal(b1-4)Glc): -0.283 | glycan array binding signal (z-score) (Gal(a1-3)Gal(b1-4)GlcNAc): -0.238 | glycan array binding signal (z-score) [8]: -0.175 | glycan array binding signal (z-score) [9]: -0.363 | glycan array binding signal (z-score) [10]: 0.016 | glycan array binding signal (z-score) (Gal(a1-3)GalNAc): -0.446 | glycan array binding signal (z-score) [11]: -0.362 | glycan array binding signal (z-score) [12]: 0.015 | glycan array binding signal (z-score) (Gal(a1-4)Gal(b1-4)Glc): -0.283 | glycan array binding signal (z-score) (Gal(a1-4)Gal(b1-4)GlcNAc): -0.423 | glycan array binding signal (z-score) [13]: 0.389 | glycan array binding signal (z-score) [14]: -0.355 | glycan array binding signal (z-score) (Gal(a1-4)GlcNAc): -0.375 | glycan array binding signal (z-score) (Gal(a1-6)Glc): -0.479 | glycan array binding signal (z-score) (Gal(b1-2)Gal): -0.425 | glycan array binding signal (z-score) (Gal(b1-3)Gal): -0.268 | glycan array binding signal (z-score) (Gal(b1-3)Gal(b1-4)GlcNAc): -0.137 | glycan array binding signal (z-score) [15]: 1.02 | glycan array binding signal (z-score) (Gal(b1-3)GalNAc): -0.212 | glycan array binding signal (z-score) [16]: -0.46 | glycan array binding signal (z-score) [17]: -0.491 | glycan array binding signal (z-score) [18]: -0.435 | glycan array binding signal (z-score) [19]: -0.123 | glycan array binding signal (z-score) [20]: -0.063 | glycan array binding signal (z-score) (Gal(b1-3)GlcNAc): -0.346 | glycan array binding signal (z-score) [21]: -0.48 | glycan array binding signal (z-score) [22]: 0.354 | glycan array binding signal (z-score) [23]: -0.097 | glycan array binding signal (z-score) [24]: -0.307 | glycan array binding signal (z-score) [25]: -0.474 | glycan array binding signal (z-score) [26]: -0.339 | glycan array binding signal (z-score) [27]: -0.322 | glycan array binding signal (z-score) [28]: -0.403
